# Reference: US11925679B2, “H3.3 CTL peptides and uses thereof” (The Regents of the University of California, priority 2015, dated 2024)
# What was measured:
# [1] = test system: purified HLA-A2 class I molecules; experiment: Competitive binding inhibition assay with purified HLA-A2 and radiolabeled probe peptide
# Protocol: We next directly evaluated relative binding affinity of these peptides using the transporter associated with antigen processing (TAP)-deficient HLA-A* ? + T2 cell line. Since stable binding of HLA-A ? with peptide epitopes further stabilizes the surface expression of HLA-A ? , quantitative expression levels of HLA-A ? correlate with the binding affinity of the peptide-epitopes that are co-incubated with the T2 cells (FIG. 1). The MFI values for T2 cells with no peptide indicate the baseline HLA-A2 expression level. Cap6D is a well-documented HLA-A ? -binding epitope and used as a positive control for the assay. […]
# HLA-peptide binding assays. Quantitative assays to measure the binding of peptides to purified HLA ? class I molecules are based on the inhibition of binding of a radiolabeled standard peptide (HBV core 18-27 analog, […] (SEQ ID NO:20)), and were performed as detailed elsewhere (J. Sidney, S. Southwood, C. Moore, C. Oseroff, C. Pinilla, H. M. Grey, A. Sette, Curr Protoc Immunol Chapter 18, Unit 18 13 (2013)). […] Under the conditions used, where [radiolabeled probe]<[MHC] and IC50≥[MHC], the measured IC50 values are reasonable approximations of the true Kd values (K. Gulukota, J. Sidney, A. Sette, C. DeLisi, J Mol Biol 267, 1258-1267 (1997); Y. Cheng, W. H. Prusoff, Biochemical Pharmacology 22, 3099-3108 (1973)).
# [2] = test system: H3.3.K27M-specific TCR; settings: peptide loaded on T2 cells, FIG. 8B
# [3] = test system: HLA-A2 on T2 cells; experiment: T2 cell A2-binding assay (surface HLA-A2 stabilisation, MFI); settings: peptide co-incubated with T2 cells
# Protocol: FIG. 1. Identification of a HLA-A ? -restricted epitope in H3.3 with the K27M mutation. A. HLA-A201 binding ability of H3.3-derived peptides was analyzed by T2 cell A2-binding assay. Cap1-6D is an altered peptide ligand, which has been derived from an epitope in human carcinoembryonic Ag, CEA605-613 and was used as positive control.
# We next directly evaluated relative binding affinity of these peptides using the transporter associated with antigen processing (TAP)-deficient HLA-A* ? + T2 cell line. Since stable binding of HLA-A ? with peptide epitopes further stabilizes the surface expression of HLA-A ? , quantitative expression levels of HLA-A ? correlate with the binding affinity of the peptide-epitopes that are co-incubated with the T2 cells (FIG. 1). The MFI values for T2 cells with no peptide indicate the baseline HLA-A2 expression level. Cap6D is a well-documented HLA-A ? -binding epitope and used as a positive control for the assay. […] To precisely measure the binding of peptides to HLA-A ? class I molecules, we performed a competitive binding inhibition assay, and evaluated the concentration of peptide yielding 50% inhibition of the binding of the radiolabeled probe peptide (IC50).
Sequence,IL-2 production by TCR-transduced J.RT3-T3.5 cells (recognition by the TCR) [2],further results
"RKSAPSTGGV [H3.3.Non-M (26-35), non-mutant counterpart of H3.3 positions 26-35, reference compound]",,binding capability relative to the mutant H3.3.K27M peptide (fold lower) [1]: > 30 fold
RMSAPATGGV [Mut H3.1],failed to recognize,
RMSAPSTGGV [H3.3.K27M (26-35)],,mean fluorescence intensity (MFI) of HLA-A2 on T2 cells [3]: peptide-dose-dependent increase of mean fluorescence intensity
XMSAPSTGGV [Cit H3.3],completely abrogates IL-2 production,
